Reference: PubChem BioAssay AID463173 (ICCB-Longwood Screening Facility, Harvard Medical School, 2010)
Out of some 52,000 compounds screened, about 1,700 (3.3%) were called active. No stated cut-off is given here; in the data, active means survival mostly below about 52% (no sharp cut-off); inactive means mostly above about 56%. The list shows a part of the results.

Test system: Wild type
Assay: S. aureus survival, RN4220 and DeltatarO strains – OD600, teichoic acid synthesis inhibitors, primary screen (AID 463173)
Details: S. aureus RN4220 wild type/DeltatarO growth, OD600, 18 h, active compounds read low, screened at 18.75 µg/mL (by protocol)

| SMILES | survival |
| --- | --- |
| O=C(c1ccc(CS(=O)c2ccccc2Cl)o1)N1CCN(c2cccc(C(F)(F)F)c2)CC1 (stereo not drawn) | inactive: 49% |
| Cc1nn(CCC(=O)NCc2cccc(Br)c2)c(=O)c2nn(-c3ccccc3)c(C)c12 | inactive: 101% |
| CCn1c(=O)c2sccc2n2c(CCC(=O)N3CCN(c4ccccc4OC)CC3)nnc12 | inactive: 129% |
| CC(C)NC(=O)Cn1ccc2cc(S(=O)(=O)N3CCCCCC3)ccc21 | inactive: 90% |
| CCCOc1ccc(C(=O)NCC(c2ccc(OC)cc2)N2CCCCC2)cc1 (stereo not drawn) | inactive: 89% |
| Cc1cccc(OCCCSc2nc(-c3ccc(C(C)(C)C)cc3)nc3cc(=O)[nH]n23)c1C | inactive: 74% |
| CCOC(=O)C1CCN(C(=O)CN(c2cc(Cl)ccc2OC)S(C)(=O)=O)CC1 | inactive: 109% |
| CC(NC(=O)c1ccc(CSc2nc3ccncc3n2Cc2ccc(F)cc2)cc1)c1ccccc1 (stereo not drawn) | inactive: 92% |
| O=S(=O)(c1ccccc1)c1nc(-c2cccs2)oc1N1CCCCC1 | inactive: 123% |
| COC(=O)CC1=C(C(=O)OC)C(c2ccc(C(=O)OC)cc2)C(C#N)=C(N)O1 (stereo not drawn) | inactive: 110% |
| c1ccc2c(c1)CNc1ccccc1C2 | inactive: 100% |
| CCCCCn1c(=O)[nH]c2cc(C(=O)NCc3ccc(F)cc3)ccc2c1=O | inactive: 80% |
| Cc1cccc(-n2c(=O)c3c(c4cc(C)ccc4n3C)n(CC(=O)Nc3ccccc3Cl)c2=O)c1 | inactive: 74% |
| COCCNC(=O)c1ccc2c(c1)N(Cc1ccc(C(F)(F)F)cc1)C(=O)c1ccccc1S2 | inactive: 84% |
| CC(C)c1ccc(S(=O)(=O)c2nnn3c2nc(N2CCOCC2)c2sccc23)cc1 | inactive: 104% |
| CC1CCN(S(=O)(=O)c2ccc3c(ccn3CC(=O)NCc3ccc(N(C)C)cc3)c2)CC1 | inactive: 98% |
| Cc1ccccc1OCC(=O)Nc1c(C)ccc2nsnc12 | inactive: 85% |
| Cc1cc(C)n2ncc(C(=O)Nc3cccc(C(F)(F)F)c3)c2n1 | inactive: 110% |
| Cc1c(C(=O)Nc2ccccc2Br)oc2ccc(S(=O)(=O)N3CCOCC3)cc12 | inactive: 113% |
| CCC1CN(C(=O)N2CCC(C(=O)N3CCN(c4ccc(F)cc4)CC3)CC2)c2ccccc2O1 (stereo not drawn) | inactive: 97% |

| SMILES | survival |
| --- | --- |
| CCCCc1nn2c(=O)cc(COC(=O)C(C)Oc3ccccc3)nc2s1 (stereo not drawn) | inactive: 105% |
| COc1ccc(CCC(=O)NCc2nc3cccnc3n2Cc2cccc(OC)c2)cc1 | inactive: 73% |
| COc1ccc(Cl)cc1NC(=O)Cn1nc(C(F)(F)F)c2c1CCC2 | inactive: 84% |
| COc1ccc(NS(=O)(=O)c2ccc3c(c2)CCCN3C(=O)C2CCC2)cc1OC | inactive: 119% |
| Cc1ccc(NC(=O)C2CCN(C(=O)c3cnn(-c4ccccc4)c3-n3cccc3)CC2)cc1 | inactive: 129% |
| CCOC(=O)N1CCc2c(sc3c2c(=O)n(-c2ccc(CC)cc2)c(=O)n3CC(=O)c2ccccc2)C1 | inactive: 87% |
| CC(C)CNC(=O)c1c(-c2ccccc2)c(-c2ccccc2)nn(C)c1=O | inactive: 85% |
| COc1ccc2c(c1)CC(NC(=O)Nc1ccc(NC(C)=O)cc1)CO2 (stereo not drawn) | inactive: 121% |
| Cc1ccc(S(=O)(=O)NC2CCCCC2)c2nsnc12 | inactive: 129% |
| COc1ccccc1CNC(=O)C1CCN(Cc2cc3ccccc3n2Cc2cccc(C)c2)CC1 | inactive: 54% |
| C[n+]1cccc(O)c1I | inactive: 102% |
| Cc1ccccc1Cn1c(=O)n(CCCCC(=O)NCc2ccccc2Cl)c(=O)c2ccccc21 | inactive: 96% |
| O=C(NCc1ccccc1Cl)c1ccc(NC(=O)c2nsc3ccccc23)cc1 | inactive: 66% |
| O=C(CSc1nnc(-c2ccncc2)n1-c1ccccc1)Nc1ccc(Br)cc1 | inactive: 73% |
| CCOc1ccc2nc(N3CCC(C(=O)Nc4ccc(Br)cc4F)CC3)sc2c1 | inactive: 90% |
| CCOc1cc(C)c(C(C)C)cc1S(=O)(=O)n1ccnc1CC | active: -11% |
| CCOc1ccc(NC(=O)C2CCN(S(=O)(=O)c3ccc4c(c3)oc(=O)n4C)CC2)cc1 | inactive: 92% |
| O=C1S/C(=C/c2ccccc2)C(=O)N1CO | inactive: 113% |
| CC(=O)N1CCOc2cc(S(=O)(=O)Nc3cc(C(F)(F)F)ccc3Cl)c(C)cc21 | inactive: 93% |
| CCCNC(=O)c1c(NC(=O)c2ccc(C)cc2)sc2c1CCCCC2 | inactive: 82% |

| SMILES | survival |
| --- | --- |
| CCSc1ncc(Cl)c(C(=O)N(Cc2ccc(C(C)(C)C)cc2)C2CCS(=O)(=O)C2)n1 (stereo not drawn) | inactive: 76% |
| CCOC(=O)Nc1cccc(C(=O)O)c1 | inactive: 103% |
| COc1ccc2c(c1)c1c(c(=O)n(Cc3ccccc3)c(=O)n1Cc1ccccc1)n2C | active: -3% |
| O=S(=O)(NC1CCCC1)c1ccc(-n2cnnn2)cc1 | inactive: 101% |
| CCOC(=O)c1cccc(NC(=O)Nc2ccc3c(c2)N(C)C(=O)c2ccccc2S3)c1 | inactive: 97% |
| CCOC(=O)c1c(C)oc2nc(C)nc(NCCCN3CCN(c4cc(Cl)ccc4C)CC3)c12 | inactive: 72% |
| Cc1ccc(-c2noc(-c3nnn(CC(=O)Nc4cccc(C(F)(F)F)c4)c3N)n2)cc1 | inactive: 76% |
| O=C(NCCCN1CCN(c2ccccc2F)CC1)C1COc2ccccc2C1 (stereo not drawn) | inactive: 101% |
| Clc1c(-c2nnc(-c3cccs3)o2)sc2ccccc12 | inactive: 103% |
| CCCS(=O)(=O)N1CCN(C(=O)COc2cccc(C)c2)CC1 | inactive: 121% |
| Cc1ccc(C(=O)NCC(=O)OCc2cc(=O)n3nc(C4CC4)sc3n2)cc1 | inactive: 86% |
| COc1ccc(S(=O)(=O)Cc2ccc(C(=O)N3CCN(c4cc(C)ccc4C)CC3)o2)cc1 | inactive: 144% |
| CS(=O)(=O)N1C(=O)CCC1=O | inactive: 105% |
| O=C(O)c1cccnc1SCc1cccc(Cl)c1 | inactive: 71% |
| O=C(Nc1cccc(-c2nc3ccccc3[nH]2)c1)c1c(F)cccc1F | inactive: 63% |
| O=C(NN=C1CCCC1)c1cc(-c2ccccc2)n[nH]1 | inactive: 121% |
| CCOc1ccc(/C=C/C(=O)NCc2ccco2)cc1OC | inactive: 103% |
| Cc1ccccc1NC(=O)C(C)Sc1nc2ccccc2c(=O)n1C (stereo not drawn) | inactive: 100% |
